Experimental data as given in PubChem BioAssay AID504332 (National Center for Advancing Translational Sciences (NCATS), 2011).
Screen size: about 350,000 compounds; about 31,000 (8.9%) were called active. Inconclusive means that the source gave no clear call. Such entries were picked first, then a sample of the others. The call rests on the fitted dose curve; in most records, active means well fitted inhibition curve with a large enough effect; inconclusive means small, poorly fitted or top-dose-only effect; inactive means no such curve, though single readings can be large or run the other way. Potencies beside an inconclusive call are fits to weak or partial responses and may not hold up.

biological target: Histone-lysine N-methyltransferase EHMT2 (Homo sapiens) (UniProt Q96KQ7); test: qHTS Assay for Inhibitors of Histone Lysine Methyltransferase G9a; details: G9a H3K9 monomethylation, AlphaScreen, 2 h; activity, negative = inhibition: at 59 µM (top of the series) unless noted; further: nearly all actives have a fitted effect of over 75% in size
Sequence of UniProt Q96KQ7 (Q96KQ7 whole entry, looked up): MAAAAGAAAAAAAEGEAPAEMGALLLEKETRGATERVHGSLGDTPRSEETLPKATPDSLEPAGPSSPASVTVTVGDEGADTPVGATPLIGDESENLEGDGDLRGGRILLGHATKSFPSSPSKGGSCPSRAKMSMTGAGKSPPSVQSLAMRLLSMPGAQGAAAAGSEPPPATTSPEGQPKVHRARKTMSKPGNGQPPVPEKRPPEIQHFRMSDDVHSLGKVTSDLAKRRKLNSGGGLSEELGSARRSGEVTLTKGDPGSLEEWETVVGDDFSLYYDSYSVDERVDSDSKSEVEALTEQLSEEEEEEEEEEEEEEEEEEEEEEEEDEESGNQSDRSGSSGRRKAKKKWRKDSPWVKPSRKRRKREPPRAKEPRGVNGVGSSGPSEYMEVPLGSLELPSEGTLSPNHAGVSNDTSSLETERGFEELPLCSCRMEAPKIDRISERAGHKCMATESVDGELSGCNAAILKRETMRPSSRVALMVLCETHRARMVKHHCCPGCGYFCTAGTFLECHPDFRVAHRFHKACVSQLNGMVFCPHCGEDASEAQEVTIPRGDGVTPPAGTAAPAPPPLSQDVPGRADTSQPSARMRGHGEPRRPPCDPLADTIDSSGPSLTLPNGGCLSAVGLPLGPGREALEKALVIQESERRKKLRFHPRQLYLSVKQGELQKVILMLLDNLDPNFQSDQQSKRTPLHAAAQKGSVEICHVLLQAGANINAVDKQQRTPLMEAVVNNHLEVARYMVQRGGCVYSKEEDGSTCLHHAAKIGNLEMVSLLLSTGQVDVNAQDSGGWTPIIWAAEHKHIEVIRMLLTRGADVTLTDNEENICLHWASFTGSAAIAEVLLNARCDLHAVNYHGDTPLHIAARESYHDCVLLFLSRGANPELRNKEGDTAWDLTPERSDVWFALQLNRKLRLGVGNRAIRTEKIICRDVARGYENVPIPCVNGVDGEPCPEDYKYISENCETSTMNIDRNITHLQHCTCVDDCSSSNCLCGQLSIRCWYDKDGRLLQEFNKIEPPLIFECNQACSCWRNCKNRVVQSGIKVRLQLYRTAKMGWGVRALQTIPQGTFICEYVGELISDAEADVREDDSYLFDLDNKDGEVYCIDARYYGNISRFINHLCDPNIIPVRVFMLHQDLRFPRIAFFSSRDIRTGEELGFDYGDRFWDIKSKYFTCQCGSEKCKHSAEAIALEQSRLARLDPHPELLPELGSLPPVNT
Outline: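 Signal arises when biotinylated H3K9 peptide, once monomethylated, bridges streptavidin donor and antibody-captured acceptor beads. Enzyme at 20 nM was preincubated 15 min with test compounds; peptide 500 nM and SAM 20 uM then reacted for 2 h.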
On the % scale 0 is the no-effect control and ±100 the full control effect; potency means the concentration at half of the fitted maximal effect; tags describe the fitted curve by direction and shape.

Structure (SMILES)	Potency	activity, negative = inhibition
NC(=O)COC(=O)CSc1ccc2ccccc2c1	inactive	–
CC(=O)Oc1ccc(Cl)cc1/C=C/c1ccc2ccccc2n1	inactive	–
COC(=O)C1CCN(C(=O)c2ccc3nc(-c4cccc(OC)c4)oc3c2)CC1	inconclusive: 89.1 µM [inhibitor, single point]	–
CC1CN(Cc2cnc(Cl)s2)CC(C)O1 (centres undefined)	inconclusive: 79.4 µM [inhibitor, partial curve, poor fit]	–
Cc1ccc(C2(C)NC(=O)N(CC(=O)Nc3ccc(S(=O)(=O)Nc4nccs4)cc3)C2=O)cc1 (centres undefined)	inconclusive: 28.2 µM [inhibitor, single point]	–
Cn1cc(CCC(=O)NCCCc2ccccc2)c2ccccc21	inconclusive: 70.8 µM [inhibitor, single point]	–
Cc1cc(C)c(NC(=O)CS(=O)CC(=O)NCC2CCCO2)c(C)c1 (centres undefined)	inconclusive: 89.1 µM [inhibitor, single point]	–
COc1ccccc1N1CCN(CC(=O)Nc2c(C)n(C)n(-c3ccccc3)c2=O)CC1	active: 1.41 µM	–
COc1ccc(CNC(=O)C2CC(c3ccccc3[N+](=O)[O-])=NO2)cc1 (centres undefined)	inconclusive: 79.4 µM [inhibitor, single point]	–
O=C(c1ccc(N2CCCCC2)c([N+](=O)[O-])c1)N(Cc1ccccc1)c1ccccn1	inconclusive: 3.16 µM [inhibitor, partial curve, poor fit]	–
Cc1cccc(C(=O)NC(=S)Nc2ccc3[nH]c(=O)[nH]c3c2)c1	inconclusive: 6.31 µM [inhibitor, full curve, poor fit]	–
COc1cccc(N2CC(C(=O)Nc3nnc(SCC(=O)c4ccccc4)s3)CC2=O)c1 (centres undefined)	inactive	–
CCN1C(=O)[C@H]2[C@@H](c3ccc(-c4cccc(Cl)c4)cc3)N[C@@](Cc3ccccc3)(C(=O)OC)[C@H]2C1=O	–	inactive: -9.2% [at 2.33 µM]
CC(=O)Nc1sc(C)c(C)c1C(=O)OCC(=O)N(C)C1CCS(=O)(=O)C1 (centres undefined)	inconclusive: 1.58 µM [inhibitor, full curve, poor fit]	–
Cc1noc(/C=C/c2cccnc2)c1[N+](=O)[O-]	active: 44.7 µM	–
O=C(COC(=O)/C=C/c1ccco1)Nc1ncc(Cl)cc1Cl	inconclusive: 39.8 µM [inhibitor, single point]	–
Nc1cc(N)nc(SCC(=O)N2CCN(C(=O)c3ccco3)CC2)n1	inactive	–
COc1ccc(S(=O)(=O)N2CCN(C3CC4CCC3C4)CC2)cc1 (centres undefined)	active: 22.4 µM	–
N#Cc1ccc(OCC(=O)NC(=O)NC2CCS(=O)(=O)C2)cc1 (centres undefined)	–	inactive: -2.17% [at 12.7 µM]
